From a collection of fitness landscapes (doi:10.1126/science.1257360)
The other results are listed elsewhere or left out.

B1: PhoQ; a variant is named by its letters at X, in order, P23837 (parent)
chain: MKKLLRLFFPLSLRVRFLLATAAVVLVLSLAYGMVALIGYSVSFDKTTFRLLRGESNLFYTLAKWENNKLHVELPENIDKQSPTMTLIYDENGQLLWAQRDVPWLMKMIQPDWLKSNGFHEIEADVNDTSLLLSGDHSIQQQLQEVREDDDDAEMTHSVAVNVYPATSRMPKLTIVVVDTIPVELKSSYMVWSWFIYVLSANLLLVIPLLWVAAWWSLRPIEALAKEVRELEEHNRELLNPATTRELTSLVRNLNRLLKSERERYDKYRTTLTDLTHSLKTPLXXLQXXLRSLRSEKMSVSDAEPVMLEQISRISQQIGYYLHRASMRGGTLLSRELHPVAPLLDNLTSALNKVYQRKGVNISLDISPEISFVGEQNDFVEVMGNVLDNACKYCLEFVEISARQTDEHLYIVVEDDGPGIPLSKREVIFDRGQRVDTLRPGQGVGLAVAREITEQYEGKIVAGESMLGGARMEVIFGRQHSAPKDE

Variants of: B1
Experiment: enrichment ratio after two sorts for PhoP signalling (ratio (wild type AVST 3.29)); higher = more functional
Details: with PhoP (E. coli)

Variant	enrichment ratio
DSSQ	≤ 0.25
YTGI	≤ 0.25
SRKK	1.49
RTCW	≤ 0.25
PRCS	≤ 0.25
PMWK	≤ 0.25
IPRQ	≤ 0.25
SDRD	≤ 0.25
FTIN	≤ 0.25
PDYE	≤ 0.25
KQQR	≤ 0.25
DGSA	≤ 0.25
LTMV	≤ 0.25
IVRC	≤ 0.25
QVPS	≤ 0.25
HFLY	≤ 0.25
GGFM	≤ 0.25
LEQR	≤ 0.25
WCPT	≤ 0.25
TSQK	≤ 0.25
QRRG	≤ 0.25
AGPP	≤ 0.25
WYCM	≤ 0.25
LYEV	≤ 0.25
HQLK	≤ 0.25
HIIG	≤ 0.25

Variant	enrichment ratio
LTIK	≤ 0.25
DQGA	≤ 0.25
MQSV	≤ 0.25
NGWG	≤ 0.25
MSGS	5.05
SWLN	≤ 0.25
TTML	28.8
KQAM	≤ 0.25
PTWQ	≤ 0.25
NNVA	≤ 0.25
SEWV	0.784
IHIA	≤ 0.25
RGSR	≤ 0.25
RQEF	≤ 0.25
TYLR	≤ 0.25
KRTT	≤ 0.25
ECCW	≤ 0.25
IKKK	≤ 0.25
VKWW	≤ 0.25
VIFG	≤ 0.25
FVYK	≤ 0.25
DSWF	≤ 0.25
PVLR	≤ 0.25
HQKV	≤ 0.25
YARH	≤ 0.25
STLG	14.5

Variant	enrichment ratio
PLYR	≤ 0.25
LDEQ	≤ 0.25
TRVI	5.94
IFDV	≤ 0.25
HATR	≤ 0.25
PWGV	≤ 0.25
YKGE	≤ 0.25
YQPV	≤ 0.25
GCLW	4.75
TCLY	≤ 0.25
FYND	≤ 0.25
FMMN	≤ 0.25
QGVH	≤ 0.25
ACVA	3.46
APLV	≤ 0.25
GQLK	≤ 0.25
NENI	≤ 0.25
DMSN	≤ 0.25
PWEI	≤ 0.25
IWAA	≤ 0.25
QTDG	13.5
RRHM	≤ 0.25
LHPE	≤ 0.25
AWSR	≤ 0.25
FMCQ	≤ 0.25
IDKI	≤ 0.25

Variant	enrichment ratio
ILPT	≤ 0.25
LIFV	≤ 0.25
FKYP	≤ 0.25
MAGG	8.22
NVKW	≤ 0.25
RYAK	≤ 0.25
WSFT	≤ 0.25
VMVG	≤ 0.25
YVAG	≤ 0.25
QVNH	≤ 0.25
TIDH	1.21
WHGI	≤ 0.25
QIML	≤ 0.25
TRNW	≤ 0.25
WKWA	≤ 0.25
YDPE	≤ 0.25
SFIN	≤ 0.25
KSNT	≤ 0.25
RDFC	≤ 0.25
MMAS	15.4
GIIW	≤ 0.25
RIYG	≤ 0.25
NQNF	≤ 0.25
LVPY	≤ 0.25
ALTE	≤ 0.25
YPAY	≤ 0.25

Variant	enrichment ratio
LRFY	≤ 0.25
PFFH	≤ 0.25
ECRM	≤ 0.25
SVPS	≤ 0.25
WHMP	≤ 0.25
RCGK	≤ 0.25
VWIT	≤ 0.25
GCYN	≤ 0.25
GQSN	≤ 0.25
KQKC	≤ 0.25
DLAI	≤ 0.25
LNWR	≤ 0.25
WDYK	≤ 0.25
YIFP	≤ 0.25
HELL	1.38
RRMG	≤ 0.25
YESQ	≤ 0.25
QFWG	2.61
GIPR	≤ 0.25
ARTF	≤ 0.25
LIWV	≤ 0.25
MNFY	≤ 0.25
NHDE	≤ 0.25
PIGT	≤ 0.25
HFHD	≤ 0.25
KRNM	≤ 0.25

Variant	enrichment ratio
DEPD	≤ 0.25
HTQS	≤ 0.25
TLCF	≤ 0.25
YLSM	0.31
SWMA	≤ 0.25
NQFH	≤ 0.25
DHLD	≤ 0.25
SSAM	10.8
KRKC	≤ 0.25
YWDS	≤ 0.25
NEGM	≤ 0.25
YMSI	≤ 0.25
AYGS	≤ 0.25
CIWF	≤ 0.25
MMFP	≤ 0.25
NEMF	≤ 0.25
VLGC	≤ 0.25
SCGV	4.54
FHLY	≤ 0.25
YPDL	≤ 0.25
IRYI	≤ 0.25
MEYD	≤ 0.25
MIMS	≤ 0.25
